Our source for the cell count values is the supplement of paper PMC4604168 (melanoma cell lines).

Structures are written as SMILES. The list shows a part of the results. Repeats are few or missing, and single values can be far off.
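Further: cell number obtained by counting DAPI-stained nuclei in high-throughput microscope images with image analysis software, screen run in 1,536-well plates.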

For the test, the system named is MEL-HO. The test is described as follows: cell count relative to DMSO control; melanoma cells; higher = more viable cells. Particulars: library dose: low library concentration; 72 h.
`OCc1c[nH]c2ccccc12` [Indole-3-carbinol] + COCC[n+]1c2c(n(Cc3cnccn3)c1C)C(=O)c1ccccc1C2=O [YM155] (first compound 0.8 µM, partner dose 0.0004 µM) came in with a cell count of 111%. In the case of `OCc1c[nH]c2ccccc12` [Indole-3-carbinol] + C[C@]1(c2nc3c(C(N)=O)cccc3[nH]2)CCCN1 [Veliparib] (first compound 0.8 µM, partner dose 1.4 µM), the cell count is 98.3%. To `OCc1c[nH]c2ccccc12` [Indole-3-carbinol] + C#Cc1cccc(Nc2ncnc3cc(OCCOC)c(OCCOC)cc23)c1 [erlotinib] (first compound 0.8 µM, partner dose 0.8 µM) belongs 98.1%.

In the case of `C#Cc1cccc(Nc2ncnc3cc(OCCOC)c(OCCOC)cc23)c1` [erlotinib] + Cn1nnc2c(C(N)=O)ncn2c1=O [temozolomide] (first compound 0.8 µM, partner dose 2 µM), the cell count is 101%. In turn, `C#Cc1cccc(Nc2ncnc3cc(OCCOC)c(OCCOC)cc23)c1` [erlotinib] + Cc1nc(Nc2ncc(C(=O)Nc3c(C)cccc3Cl)s2)cc(N2CCN(CCO)CC2)n1 [dasatanib] (first compound 0.8 µM, partner dose 0.004 µM) showed a cell count of 81%. With `Cn1c(Nc2ccc(C(F)(F)F)cc2)nc2cc(Oc3ccnc(-c4ncc(C(F)(F)F)[nH]4)c3)ccc21` + Cn1nnc2c(C(N)=O)ncn2c1=O [temozolomide] (first compound 0.08 µM, partner dose 2 µM) the figure was 68.9%; with `COCC[n+]1c2c(n(Cc3cnccn3)c1C)C(=O)c1ccccc1C2=O` + C[C@]1(c2nc3c(C(N)=O)cccc3[nH]2)CCCN1 [Veliparib] (first compound 0.0004 µM, partner dose 1.4 µM), 76.8%; with `OCc1c[nH]c2ccccc12` [Indole-3-carbinol] + COc1cc(Nc2ncc(F)c(Nc3ccc4c(n3)NC(=O)C(C)(C)O4)n2)cc(OC)c1OC [Tamatinib] (first compound 0.8 µM, partner dose 0.4 µM), 90.8%.

`Clc1ccc(Nc2nnc(Cc3ccncc3)c3ccccc23)cc1` [vatalanib] + C[C@@H]1CCN(C(=O)CC#N)C[C@@H]1N(C)c1ncnc2[nH]ccc12 [CP690550] (first compound 2 µM, partner dose 1 µM) yielded a cell count of 109%. To `C#Cc1cccc(Nc2ncnc3cc(OCCOC)c(OCCOC)cc23)c1` [erlotinib] + COCC[n+]1c2c(n(Cc3cnccn3)c1C)C(=O)c1ccccc1C2=O [YM155] (first compound 0.8 µM, partner dose 0.0004 µM) belongs 100%; to `Clc1ccc(Nc2nnc(Cc3ccncc3)c3ccccc23)cc1` [vatalanib] + COCC[n+]1c2c(n(Cc3cnccn3)c1C)C(=O)c1ccccc1C2=O [YM155] (first compound 2 µM, partner dose 0.0004 µM), 112%; to `OCc1c[nH]c2ccccc12` [Indole-3-carbinol] + COc1ccc(Cl)c(Nc2nc3ccccc3nc2NS(=O)(=O)c2cccc(NC(=O)C(C)(C)N)c2)c1 [XL147] (first compound 0.8 µM, partner dose 0.8 µM), 101%.

Turning to `Nc1cccc2c1CN(C1CCC(=O)NC1=O)C2=O` (stereo unspecified) [lenalidomide] + C[C@]1(c2nc3c(C(N)=O)cccc3[nH]2)CCCN1 [Veliparib] (first compound 1 µM, partner dose 1.4 µM), the cell count was 92.1%. With `COCC[n+]1c2c(n(Cc3cnccn3)c1C)C(=O)c1ccccc1C2=O` + O=C(CCCCCCC(=O)Nc1ccccc1)NO [vorinostat] (first compound 0.0004 µM, partner dose 0.08 µM) the figure was 96.7%. To `OCc1c[nH]c2ccccc12` [Indole-3-carbinol] + Cn1c(Nc2ccc(C(F)(F)F)cc2)nc2cc(Oc3ccnc(-c4ncc(C(F)(F)F)[nH]4)c3)ccc21 [CHIR265] (first compound 0.8 µM, partner dose 0.08 µM) belongs 82.3%.

Take `COCC[n+]1c2c(n(Cc3cnccn3)c1C)C(=O)c1ccccc1C2=O` + Nc1cccc2c1CN(C1CCC(=O)NC1=O)C2=O [lenalidomide] (first compound 0.0004 µM, partner dose 1 µM): the cell count stood at 85.8%.
